Laboratory results published in PMC4336329 (PLoS ONE, 2015).
Out of some 310,000 compounds screened, about 2,200 (0.71%) showed an effect of 50% or more. Effects have a minus sign here. This is one part of the list.

Target: human ether-à-go-go-related gene (hERG) potassium channel (human, UniProt Q12809)
Assay: primary screen, population patch clamp on CHO cells stably expressing hERG

Sequence of human ether-à-go-go-related gene (hERG) potassium channel (Q12809 whole entry, looked up): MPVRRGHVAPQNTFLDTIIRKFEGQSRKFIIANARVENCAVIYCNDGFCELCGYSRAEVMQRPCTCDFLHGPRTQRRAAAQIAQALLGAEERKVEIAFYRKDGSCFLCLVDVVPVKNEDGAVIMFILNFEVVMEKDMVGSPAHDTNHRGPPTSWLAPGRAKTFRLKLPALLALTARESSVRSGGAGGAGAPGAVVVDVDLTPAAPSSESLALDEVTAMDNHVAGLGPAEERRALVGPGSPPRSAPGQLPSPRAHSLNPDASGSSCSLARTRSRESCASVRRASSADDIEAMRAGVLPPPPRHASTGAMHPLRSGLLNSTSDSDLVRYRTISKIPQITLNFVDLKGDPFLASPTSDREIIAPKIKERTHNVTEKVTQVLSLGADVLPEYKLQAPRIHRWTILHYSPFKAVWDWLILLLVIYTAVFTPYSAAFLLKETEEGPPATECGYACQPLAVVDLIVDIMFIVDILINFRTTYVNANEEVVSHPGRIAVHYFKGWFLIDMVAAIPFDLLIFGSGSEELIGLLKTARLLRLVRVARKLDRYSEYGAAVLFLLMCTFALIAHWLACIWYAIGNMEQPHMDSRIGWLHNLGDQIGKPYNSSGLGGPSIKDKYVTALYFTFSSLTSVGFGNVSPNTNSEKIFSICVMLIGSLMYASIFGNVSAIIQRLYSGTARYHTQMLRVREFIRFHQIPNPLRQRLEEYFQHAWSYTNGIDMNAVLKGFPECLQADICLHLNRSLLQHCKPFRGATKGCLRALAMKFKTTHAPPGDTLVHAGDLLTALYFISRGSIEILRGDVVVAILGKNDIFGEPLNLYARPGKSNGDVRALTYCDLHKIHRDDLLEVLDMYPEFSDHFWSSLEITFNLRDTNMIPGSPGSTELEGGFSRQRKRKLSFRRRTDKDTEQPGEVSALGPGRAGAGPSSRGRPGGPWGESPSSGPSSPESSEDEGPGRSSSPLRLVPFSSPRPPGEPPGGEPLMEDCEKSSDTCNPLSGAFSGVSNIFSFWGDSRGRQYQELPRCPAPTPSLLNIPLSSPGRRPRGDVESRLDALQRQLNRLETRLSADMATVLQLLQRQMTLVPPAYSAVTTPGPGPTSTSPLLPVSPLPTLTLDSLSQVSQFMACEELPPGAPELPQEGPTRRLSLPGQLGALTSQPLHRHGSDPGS

| SMILES | hERG current change (%, negative = inhibition) at 1uM [%] |
| --- | --- |
| Cn1c(SCc2ccccc2F)nnc1-c1cnccn1 | 8.47 |
| CCc1nnc(NC(=O)c2sc3nc4cc(C)ccc4cc3c2N)s1 | 28 |
| C[C@H](C(=O)NCc1ccccc1)C(=O)c1ccccc1 | 8.46 |
| COc1ccccc1OCc1nc(C#N)c(NCCCn2ccnc2)o1 | 18.3 |
| CN1C[C@@H]2C(c3ccc(Cl)nc3)C3(c4ccc(C#N)cc4)CC2(C3)[C@H]1c1ccccc1 (stereo partly drawn) | -7.57 |
| COc1ccc2[nH]c(=O)c(CN(C)C(=O)c3cccs3)cc2c1 | -3.91 |
| COc1ccc(-c2nnn(-c3ccc(Cl)cc3Cl)c2N)cc1 | -0.193 |
| O=C(Cc1cccs1)N/N=C\c1ccc(O)cc1 | 14.2 |
| CC(=O)Nc1ccc(NC2=Nc3ccccc3N3C2=Nc2c(c(C)nn2-c2ccccc2)C3c2ccccc2)cc1 (stereo not drawn) | 9.02 |
| c1ccc(CNc2nc(-c3cccs3)nc3ccccc23)nc1 | 7.04 |
| CCOc1cc(CNCCO)cc(Br)c1OCc1ccccc1.Cl | 9.9 |
| Cc1cc(C)cc(NC2=NCC(=O)N2Cc2ccccc2)c1 | 6.97 |
| CCOC(=O)c1csc(COc2ccc(OC)cc2)n1 | -0.175 |
| COc1cc(NC(=O)CN2CCN(c3ccccc3)CC2)c(C)cc1[N+](=O)[O-] | 10.4 |
| COCCCN1C(=O)C(=O)/C(=C(/O)c2ccc(OC(C)C)cc2)C1c1cccnc1 (stereo not drawn) | 22.5 |
| O=C(O)CCC(=O)CCC(=O)c1ccccc1 | 2.98 |
| O=C(Nc1ncc(Cc2ccc(Cl)cc2Cl)s1)c1ccc([N+](=O)[O-])cc1 | 2.13 |
| COc1ccc(NC(=O)C2CCCC2)cc1S(=O)(=O)N1CCOCC1 | 1.61 |
| CC(C)(C)C1=CC(O)(c2ccccc2)C=C(C(C)(C)C)C1=O | 21.9 |

| SMILES | hERG current change (%, negative = inhibition) at 1uM [%] |
| --- | --- |
| CCCCNC(=O)CSc1nc2ccc(NC(=O)CSc3nnc(COc4ccccc4C)n3C)cc2s1 | 14.6 |
| Cc1cc(=O)oc(C)c1C(=O)Nc1cccc(F)c1 | 13.1 |
| COc1ccc(NC(=O)N2CCN(C(=O)C(Cc3ccc(F)cc3)NC(C)=O)CC2)cc1 (stereo not drawn) | 4.68 |
| CCOC(=O)c1ccc(NC(=O)CNC(=O)c2ccccc2)cc1 | 7.06 |
| Cc1cc(N/N=C/c2c[nH]c3ccccc23)c2ccccc2n1 | 12.4 |
| CCOC(=O)C1=C(C)NC(C)=C(C(=O)OCC)C1c1ccc(C)o1 | 10.2 |
| O=C(NC1CCCCC1)c1cc([N+](=O)[O-])[nH]n1 | 6.33 |
| CCOC(=O)C1CCN(C(=O)CN(c2ccc(OC)cc2)S(=O)(=O)c2c(C)noc2C)CC1 | -0.213 |
| CCc1nc(N)c(C#N)c(-c2ccncc2)c1C | 9.24 |
| COc1ccc(-c2nn(-c3ccccc3)cc2/C=C\C(=O)Nc2ccc(C(=O)O)cc2)cc1 | 10.3 |
| COc1cc(Cl)cc(C2NC(=O)NC(C)=C2C(C)=O)c1OCC(=O)O (stereo not drawn) | -0.404 |
| CCc1ccc(-c2cc(C)no2)cc1S(=O)(=O)N1CCOc2ccccc21 | 1.72 |
| Cc1nc2c(cnn2-c2ccccc2)c(=O)[nH]1 | 17 |
| CCOC(=O)CCC(NC(=O)CC(=O)NC(CCC(=O)OCC)C(=O)OCC)C(=O)OCC (stereo not drawn) | 14.7 |
| N=c1c(S(=O)(=O)c2ccc(Br)cc2)cc2c(=O)n3ccccc3nc2n1Cc1ccco1 | 15.4 |
| O=[N+]([O-])c1ccc(O)c(-c2cc(C(F)(F)F)nc(-c3ccccc3)n2)c1 | 15.7 |
| Cc1nn2c(NCCOCCO)c3c(nc2c1-c1ccccc1)CCC3 | -9.29 |
| COC(=O)C(C(=O)OC)C(C)C(C(=O)OC)C(=O)OC | 1.64 |
| CC(C)Oc1cccc(C(=O)NC(=S)NCc2cccnc2)c1 | -9.66 |

| SMILES | hERG current change (%, negative = inhibition) at 1uM [%] |
| --- | --- |
| O=C(NCCc1ccccc1)C(=O)NCC1OCCN1S(=O)(=O)c1ccc(Br)cc1 (stereo not drawn) | 8.83 |
| O=C(Nc1ccc(NC(=O)c2cccs2)cc1)c1ccc2c(c1)OCCO2 | 11 |
| CNC(=O)CN(c1cccc(Br)c1)S(C)(=O)=O | 11.4 |
| Cc1cc(C)c(OCC(=O)NCC(C)(C)N2CCOCC2)c(C)c1 | -0.673 |
| S=C1NCN(Cc2cccnc2)CN1Cc1ccccc1 | 21.5 |
| COc1ccc(NCc2nnc(SCC(=O)N3CCCc4ccccc43)n2C)cc1 | -2.8 |
| CCOc1cc(C(=O)NC(=S)Nn2cnnc2)cc(OCC)c1OCC | 12.5 |
| CC1(C)CN(c2ccccc2)N(C(=O)c2ccc(F)cc2)C1=O | 2.5 |
| CCOc1ccc2cc(S(=O)(=O)n3ccnc3C)ccc2c1 | 13 |
| O=C(NCC(=O)N(c1ccccc1)C(C(=O)NC1CCCC1)c1cccnc1)c1cccs1 (stereo not drawn) | 8.91 |
| COc1ccc(-c2csc(NCCc3nc4cc(C(=O)NCCCO)ccc4n3Cc3ccc(C)cc3)n2)cc1 | 12.3 |
| N#CCSc1nnc2ccc3ccccc3n12 | 5.14 |
| Cl.N=C(N)SCc1ccccc1Cl | 21.8 |
| O=S(=O)(c1ccc(F)cc1)N1CCN(C(=S)NCC2CCCO2)CC1 (stereo not drawn) | -3.72 |
| COc1ccc(/C=N/NC(=O)c2sc3nc(C)cc(C)c3c2N)cc1 | 14.9 |
| CS(=O)(=O)c1ccc2nc(NC(=O)CN3CCN(Cc4ccccc4)CC3)sc2c1 | 2.22 |
| CCC(CC)C(=O)NC12CC3CC(CC(C3)C1)C2 | 9.3 |
| Fc1ccccc1-c1cc2ncccc2cn1 | 10.8 |
| CCC1CCCCN1C(=O)c1cccc(S(=O)(=O)Nc2cc(C(F)(F)F)ccc2Cl)c1 (stereo not drawn) | 5.63 |
